From PMC4336329 (PLoS ONE, 2015)
In all, about 310,000 compounds went through this assay and about 14,000 (4.5%) showed an effect of 50% or more. Effects have a minus sign here. The list shows a part of the results.

Target: human ether-à-go-go-related gene (hERG) potassium channel (human, UniProt Q12809)
Assay: primary screen, population patch clamp on CHO cells stably expressing hERG
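Note: peak tail current of the secondary pulse compared with the same well before compound.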

human ether-à-go-go-related gene (hERG) potassium channel, sequence (Q12809 whole entry, looked up): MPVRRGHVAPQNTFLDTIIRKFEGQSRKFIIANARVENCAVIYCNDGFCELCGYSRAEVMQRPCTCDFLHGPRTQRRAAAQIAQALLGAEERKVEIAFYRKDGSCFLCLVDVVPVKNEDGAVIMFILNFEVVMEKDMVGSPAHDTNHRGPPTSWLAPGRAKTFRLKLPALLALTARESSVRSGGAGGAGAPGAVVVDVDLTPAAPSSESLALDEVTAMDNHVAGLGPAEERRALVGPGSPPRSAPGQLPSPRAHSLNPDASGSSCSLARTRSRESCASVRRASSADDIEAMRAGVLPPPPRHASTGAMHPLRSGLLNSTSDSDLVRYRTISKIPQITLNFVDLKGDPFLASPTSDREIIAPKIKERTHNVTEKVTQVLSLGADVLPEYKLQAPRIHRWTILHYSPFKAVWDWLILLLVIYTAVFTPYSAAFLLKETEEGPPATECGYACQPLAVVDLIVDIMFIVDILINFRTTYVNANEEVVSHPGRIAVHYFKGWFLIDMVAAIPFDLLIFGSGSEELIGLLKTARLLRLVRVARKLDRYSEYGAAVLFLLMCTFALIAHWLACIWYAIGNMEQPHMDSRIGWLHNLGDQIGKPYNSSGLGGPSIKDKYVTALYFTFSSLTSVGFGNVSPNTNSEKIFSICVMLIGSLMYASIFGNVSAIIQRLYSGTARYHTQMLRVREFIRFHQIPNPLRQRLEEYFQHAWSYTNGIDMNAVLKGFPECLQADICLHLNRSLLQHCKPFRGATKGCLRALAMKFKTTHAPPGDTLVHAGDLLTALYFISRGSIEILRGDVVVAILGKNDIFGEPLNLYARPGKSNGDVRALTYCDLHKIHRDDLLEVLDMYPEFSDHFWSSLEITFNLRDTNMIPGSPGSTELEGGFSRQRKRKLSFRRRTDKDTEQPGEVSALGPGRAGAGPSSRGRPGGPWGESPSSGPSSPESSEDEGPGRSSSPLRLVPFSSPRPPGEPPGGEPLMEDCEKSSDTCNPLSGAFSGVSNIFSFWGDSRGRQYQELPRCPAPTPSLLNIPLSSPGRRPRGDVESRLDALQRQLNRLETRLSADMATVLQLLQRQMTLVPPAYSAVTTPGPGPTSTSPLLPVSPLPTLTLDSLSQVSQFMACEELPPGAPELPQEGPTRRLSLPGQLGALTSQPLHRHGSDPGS

Row | Compound | hERG current change (%, negative = inhibition) at 10uM [%]
1 | O=C(C1CCC(Cn2c(=O)[nH]c3ccccc3c2=O)CC1)N1CCN(c2ccccc2)CC1 (stereo not drawn) | 6.47
2 | COc1ccc(C(C)=O)cc1COc1ccc([N+](=O)[O-])c(C)c1 | -6.4
3 | O=C(COC(=O)/C=C/c1ccc(OC(F)F)cc1)Nc1cccc(S(=O)(=O)N2CCCC2)c1 | -20.1
4 | CN(CC(=O)Nc1cccc(F)c1)C(=O)C1CC(=O)N(Cc2ccco2)C1 (stereo not drawn) | -8
5 | CC(C)(OC(=O)c1ccc(C(F)(F)F)cc1)c1cc2ccccc2c(=O)o1 | 14.6
6 | COc1cccc(C(C(=O)NC(C)(C)C)N(Cc2ccc(F)cc2)C(=O)CCC(=O)Nc2cc(C)on2)c1OC (stereo not drawn) | 5.43
7 | C=C(C(=O)Oc1ccccc1C(C)(C)C)c1ccccc1 | 3.75
8 | CCOc1ccc(-c2nnc(SCC(=O)Nc3ccc4c(c3)c3ccccc3n4CC)n2N)cc1 | 27.9
9 | N#Cc1ccc(C(=O)NC2=NCCS2)cc1 | 23.4
10 | COc1ccccc1NC(=O)c1ccc(NC(=O)Cc2n[nH]c(=O)c3ccccc23)cc1 | -26.7
11 | CCCS(=O)(=O)NCc1cn2cccc(C)c2n1 | 7.62
12 | COc1ccc(C(=O)NCC(C)NC(=O)c2ccc(OC)c(OC)c2)cc1OC (stereo not drawn) | 13.8
13 | O=C1CSC(=S)N1/N=C/c1ccc2c(c1)OCCO2 | 23.9
14 | O=C(C(Cc1ccccc1)N1C(=O)c2ccccc2C1=O)N1CCc2ccccc21 (stereo not drawn) | 11.1
15 | C=CCN(CC=C)C(=S)NC(=O)c1ccc(C)c(Br)c1 | -12.6
16 | O=C(Nc1ccc(S(=O)(=O)N2CCCCCC2)cc1)C1CCCO1 (stereo not drawn) | -36.7
17 | COc1cccc(-n2cnc3cccc(N)c32)c1 | 8.67
18 | Fc1ccc(C(c2nnnn2C2CCCC2)N2CCc3ccccc32)cc1 (stereo not drawn) | -5.67
19 | CCC(=O)Nc1cc(-c2nn(CC(=O)N3CCCCC3)c(=O)c3ccccc23)ccc1N1CCOCC1 | 3.05
20 | O=C(NC1CCCC1)c1ccc(CS(=O)(=O)Cc2ccccc2Cl)o1 | -23.4
21 | COc1ccc(NC(=O)COC(=O)C(CC(C)C)N2C(=O)C3CC=CCC3C2=O)cc1Cl (stereo not drawn) | -9.61
22 | CCOCC(=O)Nc1ccc(S(=O)(=O)NCCc2ccccc2)cc1 | -22.9

Row | Compound | hERG current change (%, negative = inhibition) at 10uM [%]
23 | CCOC(=O)C1CCN(c2ccc(C(=O)O)cc2[N+](=O)[O-])CC1 | -3.56
24 | COc1cc(CNCc2cccs2)cc(Br)c1OC.Cl | -4.76
25 | CSc1nn2c(C(F)(F)F)cc(C(F)(F)F)nc2c1C(=O)O | 10.4
26 | O=C(CCNC(=O)Cn1ccc2ccccc2c1=O)NCc1ccccn1 | -5.54
27 | CN(C)S(=O)(=O)c1ccc(S(=O)(=O)NCCN2CCOCC2)cc1.Cl | 13.9
28 | Cl.O=C(c1cccc(S(=O)(=O)N2CCOCC2)c1)N1CCN(Cc2ccc3c(c2)OCO3)CC1 | -34.8
29 | O=C1N(CN2CCC3(CC2)OCCO3)c2ccccc2C12OCCCO2 | -5.2
30 | COc1ccc(CCC(=O)NNC(=O)Nc2ccc(C(C)C)cc2)cc1 | 23.8
31 | CCC(CC)C(=O)Nc1c2c(nn1-c1ccc(F)cc1)CS(=O)(=O)C2 | 5.88
32 | CCCCCCCCNC(=O)c1cccnc1SCC(=O)Nc1ccccc1OC | 2.4
33 | NC(=O)c1ccc(CN2CCc3ccccc3C2)cc1 | 8.4
34 | Cc1ccc(S(=O)(=O)NCC(=O)N(CC(=O)NCc2ccco2)C2CCCC2)cc1 | 5.84
35 | COc1cccc(OC)c1C(=O)Nc1ccc(S(=O)(=O)Nc2cc(C)nc(C)n2)cc1 | 12.3
36 | COC(=O)c1sc2cc(C(F)(F)F)cnc2c1-c1ccccc1 | -13.5
37 | CCOC(=O)c1ccc(NC(=O)NCc2cccnc2)cc1 | 10.1
38 | CCOC(=O)C1CCCC(NS(=O)(=O)c2ccc(NC(C)=O)cc2)C1 (stereo not drawn) | -2.41
39 | NNC(=S)NCc1cccnc1 | -3.79
40 | CCN(CC)c1ccccc1 | 12.7
41 | CCOc1ccc(NC(=O)NN2C(C)CCCC2C)cc1 (stereo not drawn) | 13
42 | O=C(c1ccco1)N1CCN(S(=O)(=O)c2ccc(Oc3ccccc3)cc2)CC1 | -31.5
43 | O=C(c1cc(-c2ccncc2)nc2ccccc12)N1CCC2(CC1)OCCO2 | -25.9
44 | CCC1CCc2c(sc(NC(=O)c3ccoc3C)c2C(N)=O)C1 (stereo not drawn) | 8.48

Row | Compound | hERG current change (%, negative = inhibition) at 10uM [%]
45 | CCCCNc1c([N+](=O)[O-])cc(C)cc1[N+](=O)[O-] | -4.19
46 | CCOc1ccc2c(c1)N(C(=O)CN1C(=O)CCC1=O)C(C)(C)C=C2C | -22.8
47 | Fc1ccc(N2CCN(/C=C/c3nnnn3-c3ccccc3)CC2)cc1 | -32
48 | CCC(C)(C)NC(=O)C(C)OC(=O)c1nsc(Cl)c1Cl (stereo not drawn) | 0.462
49 | CCOc1ccccc1NC(=O)c1cc(CC(C)C)oc1C | -0.536
50 | Cc1cc(NC(=O)c2ccccc2)ccc1NC(=O)Cc1ccccc1 | 5.89
51 | CN(CC(=O)Nc1ccccc1C(F)(F)F)C(=O)c1ccc(-c2ccc(Cl)cc2)o1 | -13.7
52 | O=C(O)CN1C(=O)/C(=C/c2ccsc2)SC1=S | 20.7
53 | COC(=O)c1ccc(CSc2nnc(-c3ccc4c(c3)OCO4)n2-c2ccccc2)o1 | -1.99
54 | Cc1ccn(S(=O)(=O)c2ccc3oc(=O)ccc3c2)n1 | 13.3
55 | CCCC(=O)Nc1ccc(NC(=O)c2ccccc2F)cn1 | 8.14
56 | COc1ccccc1-n1c(O)c(C=NCc2ccccn2)c2ccccc2c1=O | -8.58
57 | COC(=O)c1sccc1NC(=O)c1cc(-c2cccc(C)c2)nc2ccccc12 | -4.79
58 | O=C1NC2(CCCC2)C(=O)N1CCS(=O)(=O)Oc1ccccc1 | 4.89
59 | CC(C)C(=O)Nc1nnc(SCC(=O)Nc2ccc3c(c2)OCO3)s1 | 10.9
60 | CC1(C(=O)N/N=C/c2cc3c(cc2Br)OCO3)CC1(Br)Br (stereo not drawn) | -7.65
61 | CCN(CC)S(=O)(=O)c1ccc(NC2c3ccccc3C(=O)N2Cc2ccco2)cc1 (stereo not drawn) | -19.2
62 | COC(CNC(=O)c1c[nH]c2ccc(S(=O)(=O)N(C)c3ccc(F)cc3)cc2c1=O)OC | 3.15
63 | COc1cc2cc(CCOC(=O)c3ccc(C#N)cc3)oc(=O)c2cc1OC | -37.9
64 | Cc1ccc(C(C(=O)NC2CCCC2)N(C(=O)CNC(=O)c2ccco2)c2ccccc2)o1 (stereo not drawn) | -32
65 | Cc1ccc(C(=O)OC(C)C(=O)N(C)C2CCCCC2)cc1S(=O)(=O)N1CCCCC1 (stereo not drawn) | -12.8
66 | Nc1c(C(=O)NCC2CCCO2)c2nc3ccccc3nc2n1Cc1ccco1 (stereo not drawn) | 10.5

Row | Compound | hERG current change (%, negative = inhibition) at 10uM [%]
67 | CC1(C)CC(NC(=O)c2cc([N+](=O)[O-])cc([N+](=O)[O-])c2)CC(C)(C)N1 | 24.8
68 | NC(=O)C1(N2CCCCC2)CCN(C(=S)NC2CCCC2)CC1 | -7.41
69 | COCCn1nnnc1C(c1ccc(OC)c(OC)c1)N1CCN(C(=O)c2ccco2)CC1 (stereo not drawn) | 7.36
70 | CCC(C)(C)n1nnnc1C(c1cc2ccc(OC)cc2[nH]c1=O)N1CCCCC1 (stereo not drawn) | -26.3
71 | COc1ccc(CCNC(=O)c2cc3cc(F)ccc3nc2C)cc1OC | 3.1
72 | Cc1[nH]n(C)c(=O)c1N=Nc1ccc(S(C)(=O)=O)cc1 | -42.6
73 | O=C1NCC(COCc2ccccc2)O1 (stereo not drawn) | 3.36
74 | Cc1ccccc1OCC(=O)NC1=NCCS1 | 8.92
75 | CN=C1S/C(=C\c2c(OC)cc(OC)cc2OC)C(=O)N1C | 20.4
76 | Cc1ccc(-c2nnn(CC(=O)N(c3ccc4c(c3)OCCO4)C(C(=O)NCC3CCCO3)c3ccc(F)cc3)n2)o1 (stereo not drawn) | 11.3
77 | O=C(c1ccccc1)c1cnc(Nc2ccccc2Cl)s1 | -11.7
78 | Cc1ccc(S(=O)(=O)c2cn(CC(=O)Nc3ccccc3)c3ccc(F)cc3c2=O)cc1 | 7.96
79 | CC1(C)Cc2cccc(OCC(=O)NCc3ccc(F)cc3)c2O1 | -13.7
80 | C/C(=N\O)c1ccco1 | 22
81 | Cn1c(=O)cc(SCC(=O)NCCN2CCN(c3ccccc3F)CC2)c2cc(Cl)ccc21 | -54.1
82 | O=C(Nc1ccccc1F)Nc1ccccc1Br | 2.3
83 | O=C(NCC(=O)N1CCN(S(=O)(=O)c2ccccc2C(F)(F)F)CC1)c1sc2ccccc2c1Cl | 12.9
84 | COc1ccc(C(=O)CC(=O)C(=O)Nc2cc([N+](=O)[O-])ccc2OC)cc1 | 17.6
85 | Cc1ccccc1-n1c2nc(=O)n(C)c(=O)c-2cc2ccccc21 | 9.67
86 | COc1ccc(S(=O)(=O)N(C)CC(=O)NCC2CCCO2)cc1OC (stereo not drawn) | 18.6
87 | CCN1C(=O)N/C(=C/c2ccc(Sc3ccc(C)cc3)o2)C1=O | 21.5
